Results reported in the supplement of paper PMC10126150.
Values marked as one replicate rest on one cluster of the flow cell; about a third of the high ones do not repeat.

Test system: ATP
Assay: switch fluorescence ratio, 500 uM ATP over buffer (Cy3 cluster intensity, sum of 5 cycles each) (fold (ratio)); higher = stronger signal-on switching upon ATP binding; sequences stand for … in TCGTCGGCAGCGTCAGATGTGTATAAGAGACAGTTTTTTTTTTTTTTTTTTTTTTTTT…TC
Conditions: aptamer strand: ATP DNA aptamer (quencher-CACCTGGGGGAGTATTGCGGAGGAAGG + anchor), 100 nM annealed; ATP concentration: 500 uM; one replicate
Summary of the method: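 Switching-strand clusters labelled with Cy3 on a modified Illumina MiSeq flow-cell were annealed to 100 nM quencher-labelled ATP aptamer, imaged in selection buffer, and re-imaged after 15 min with 500 uM ATP at 22 °C. This was done over five cycles with NaOH stripping and re-annealing in between. The fluorescence ratio is summed target-cycle over summed buffer-cycle Cy3 intensity per cluster, averaged per switch-domain sequence, excluding clusters outside 100-1000 RFU.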
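Note: ATP exposure 15 min at 22 °C before imaging.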

Sequence	switch fluorescence ratio
GCCCTTTTTG	1.01
CGTATGCGGG	0.988
GAGAGCTAGT	1.04
ACTGGATAAG	0.957
TGAGTAATAT	1.78
TATATGGTAC	1.07
TTGGTACCGG	1.01
TCTTACAGA	1
GTACAAGCAC	1.28
GTCAGCACGG	1.03
TGGATGGCAC	1.02
CTAATGGGAA	1.05
ACACGACATT	1.2
ACAGCTAGCC	1.03
CTTGGACCAT	1.04
GATGAGTCCA	1.01
CAAACGTTTC	1.03
TAGGCCGTGG	0.981
ACGCAGAGTT	1.07
TATATTCT	0.979
GAACTCGTGG	0.996
GAATGAGTAC	1.08
GCAATTTGA	1.03
CGTGGTAAAC	1.03
GATTAGACTA	1.04
TTCATCTAGT	1.02

Sequence	switch fluorescence ratio
AACGGAGGGT	0.974
ACAATCTATT	1.01
ATAAACGTAA	1.24
CCCTTACACC	1.22
ATCGTGTTCG	1.08
CGCAACCCTT	2.06
TACGGGAA	1.11
TAAAAGCCCG	1.03
ACCGCAGAAA	2.39
AAAACAGAGG	0.987
AAGGGTGGGC	1.06
TTAACCTATA	1.05
TGAAAGTCTT	1.08
CAGTCCGTGA	1.36
AAATTGAAGG	1
CTTGCGACGT	1.16
TTGCCCGATG	1
ACCCGTGTTT	1.01
TACATATATC	1.09
ACGTATTCCT	1.16
CTGGGGACCG	1
ACCGTCTGTT	1
ATGCTTGACC	1.03
ATACTCGCAC	1.6
GGTGGTTCGT	0.965
CGAGGGTATC	1.06

Sequence	switch fluorescence ratio
CTCAAATGGG	1.01
TATCCTTATG	1.03
TTCTAGCGAC	1.16
ATGGCATGGT	0.998
TCTCTCGGTC	1.11
TATGGGGGAC	0.995
GTTCGAGCGT	1.04
TAGGGCCCGA	0.99
AAACTACCTT	1.24
GGTAGGTATG	1
CTAAAGAGTC	1
TTAGAGACGG	1.04
TCACGAGGAC	0.915
GAAGTGCAGC	1.04
TTCGTTGCAT	0.999
TGGGAATTAG	0.987
ATTTGCCTAG	0.993
TGCGGAGAGG	1.03
TTGTGTCGGC	1.04
GGAGGAATGT	1.07
CGTAAATGAC	1.09
GAAGATGAGT	1.02
AACCGCTACA	1.36
TGGGATTCCA	0.958
GAAAAATAAA	0.922
AACCGGGTAT	1.02

Sequence	switch fluorescence ratio
AAATATTG	1.03
AGACGAATA	1.02
TCGGGAGTG	1.03
ACGGTGATCT	1.02
GTGGTTATG	0.989
CACCTGGTGC	2.15
AAATTTTATC	0.947
CAAATCGCAA	4.05
AACTTTATG	0.986
TTAACGAGGA	1.01
GTATGTGTGT	0.996
AGCTTAGGCG	1.01
ACGCAGATCG	1.04
ATGTGACTGT	1
GTCTAATTGT	0.962
CCTATCCACA	1.08
TGTAAAAATT	1.01
TTACGGAGGA	0.983
ATGTTGCAGT	1.03
TGCCAACCAG	1.06
GACTGGTCGG	1.02
ATCAGAGATC	1.07
ACATTTCGTT	1.01
AGTAGGCGGG	0.952
CTTAAGAATC	0.978
ACCAGTGATA	1

Sequence	switch fluorescence ratio
TTTGCGACAG	1.03
TAGCACAGAC	2.88
ACAAACGAAA	1.15
CATGCACCTT	1.13
GATTCTGTTT	0.981
AGGATCACTA	1.02
CGCTACATGT	1.08
AGTATGGCAA	1.06
GATGCCACGT	0.986
CGGAGGTAG	1.01
ACAAAACGGC	1.26
GCAGATCCAC	1.13
CTTCATAAT	1
ACTATGGGT	1.01
GTTGCTGGGC	0.992
GAAGTGGGAA	1.2
AACATACATA	1.22
TTCACTGTGT	0.989
ACTTGCCAAG	0.943
GACCACTTTG	1.05
GAACAATCGT	0.992
TCATCTTGGG	1.01
AAGTCTGGAG	0.989
CCAGAGAGAC	1.16
TGGGACAATG	0.96
AGCCGCCACC	1.54

Sequence	switch fluorescence ratio
GAGGGAGCAT	1.42
GTTGTTAAT	1.03
ACCCAAAAAC	1.06
GCAGGCAGTT	0.975
GCGGTCCTGA	0.993
ATTAGGTGGC	0.997
GCAAAAGAGG	0.995
ATCACGTGTG	1.01
CCAGGTTGCG	1.09
AGTAGGAGGA	0.987
GCTAAGAATC	0.973
AAGTGAGCGG	1
GATCACGTGG	0.942
TTTGTCTGAG	0.971
AGCTGTTACA	1.03
ACACCTTCCG	2.59
ACGATGAGCG	1.01
GAGGTATCGA	1.07
AGCGCCCAGG	1.07
AAGTGGCC	0.955
CTTTTCAGTT	1.02
AAAGCTCAGT	1.06
GTACTAAGTT	1.08
CATATTCGCG	0.983
TTGGGTGTCA	1.03
ATATTAGCAG	1.02

Sequence	switch fluorescence ratio
CTGGGTCTCG	0.99
AGAATGACCC	1.06
CTAGCCATTC	1.11
TCTTGGACCA	0.996
CCTCAAAGGA	3.06
TCGTACAGCT	1.02
CTCCGTGCAT	6.48
TTAGGTGTG	0.977
TTTGTGTACC	1.11
ATGAAAAAGG	1.01
TGCCGGGCGG	1.23
ATGGAATATG	1.03
CCGTGTATCG	0.992
CACTTCTGTA	1.03
AACCAGGGAC	1.08
ACCGGTATAC	2.61
AGCGCCTCCA	1.04
TCCCTCCTAT	1
TTGATTCCTG	1.02
TAGGCTGTAT	1.03
GATATTTGG	1.01
TAATTCGTAA	1.08
TGGCTGAGTC	1
AAGGTGGTG	0.962
CCCCCACGCC	1.57
GGTCGCATG	0.988

Sequence	switch fluorescence ratio
AGTAGAATAT	0.962
GGGATAAACC	1.02
AAATTACTTA	1.08
TGACCTATGA	1.18
TGTCTGCTTG	0.955
CTGCGGAAAC	1.3
CCTAATCTCG	1.03
GCGGTTGTTA	1.01
TTCATGCG	0.923
AAAGAGGCGC	1.04
AACTGGTTCA	0.975
CCCATTCCCC	1.22
TTTGGCTCTA	1.03
TGGACCCTCA	1.01
AGGGTAGAAC	1.02
TGAGCGTAGT	1
CGGTTAGGAC	1
AGCAGATGGA	0.989
CTGGGAGGT	0.993
